The text below walks through data of article PMC6152936 (Cell reports, 2018).

This series concerns the molecule itself. Nature of the series: negative-stain single-particle electron microscopy.

B1: TFG N terminus ([…]), wild type (domain or fragment)
chain: not shown
As for B1, the binding result was “binds”.
